Data on 40 sequences can be found in the supplement of paper PMC6531468.

The list shows a part of the results. These are enrichments in a pooled selection; single values are uncertain. Scores sum up all selected molecules that hold the word; the word was not tested alone.

IMP3 RRM1-2, sequence (chain, as listed by the source): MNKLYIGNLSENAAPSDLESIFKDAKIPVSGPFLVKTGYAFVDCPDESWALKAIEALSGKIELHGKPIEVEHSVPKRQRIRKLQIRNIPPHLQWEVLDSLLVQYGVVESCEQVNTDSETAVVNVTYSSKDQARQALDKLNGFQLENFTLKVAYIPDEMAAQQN
IMP3 KH1-4, sequence (chain, as listed by the source): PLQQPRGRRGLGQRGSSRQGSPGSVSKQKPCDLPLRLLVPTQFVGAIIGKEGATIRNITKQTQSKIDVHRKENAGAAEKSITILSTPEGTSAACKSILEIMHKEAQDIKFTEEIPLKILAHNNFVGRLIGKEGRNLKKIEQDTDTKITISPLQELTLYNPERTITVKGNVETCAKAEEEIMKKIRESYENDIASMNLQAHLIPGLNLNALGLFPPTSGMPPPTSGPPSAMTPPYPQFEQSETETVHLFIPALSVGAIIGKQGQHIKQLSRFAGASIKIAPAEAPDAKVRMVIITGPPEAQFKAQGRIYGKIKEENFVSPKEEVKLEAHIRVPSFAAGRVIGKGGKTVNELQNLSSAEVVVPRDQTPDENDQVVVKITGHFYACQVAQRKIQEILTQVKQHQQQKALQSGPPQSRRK

One assay concerns IMP3 KH1-4. In words: 6-mer SELEX enrichment z-score vs GST control; IMP3 is the RNA-binding protein IGF2BP3; higher = more enriched by binding. The settings on record: construct: KH1-4 (164-579); SELEX round: R4. The procedure:
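SELEX-seq with GST-tagged IMP3 KH1-4 (Pro164-Lys579) and an N40 RNA pool, round 4. 6-mer z-score of sequence-tag enrichment normalised to the corresponding GST SELEX round; RNA k-mers written as DNA (T for U).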
In the case of CAGTCG, the “6-mer SELEX enrichment z-score” value worked out at 1.38.

In the case of GTTCGG, the “6-mer SELEX enrichment z-score” value is 0.374.

Regarding GCTAGT, the “6-mer SELEX enrichment z-score” value was -0.507.

CTTACA: the “6-mer SELEX enrichment z-score” value was 1.07.

In the case of GTCCAA, the “6-mer SELEX enrichment z-score” value is -0.569.

GACCCT: the “6-mer SELEX enrichment z-score” value is -1.06.

Take GTACGA: the “6-mer SELEX enrichment z-score” value is -0.946.

For the sequence TAACTG, the “6-mer SELEX enrichment z-score” value is 0.473.

For the sequence GCAGTT, the “6-mer SELEX enrichment z-score” value was -0.043.

As for GCAACC, the “6-mer SELEX enrichment z-score” value is -0.224.

For the sequence ACAAAG, the “6-mer SELEX enrichment z-score” value was -0.091.

Regarding GGTTGA, the “6-mer SELEX enrichment z-score” value is -0.213.

With CTGCAA, the “6-mer SELEX enrichment z-score” value was 0.135.

As to GTGACC, the “6-mer SELEX enrichment z-score” value was -0.809.

As for TGCATA, the “6-mer SELEX enrichment z-score” value stood at 0.619.

TCCACC: the “6-mer SELEX enrichment z-score” value was -0.331.

For the sequence TGCGCG, the “6-mer SELEX enrichment z-score” value is -0.057.

As for GCAGCC, the “6-mer SELEX enrichment z-score” value was 0.302.

On to CAACAC, for which the “6-mer SELEX enrichment z-score” value stood at 0.608.

For the sequence ACTACC, the “6-mer SELEX enrichment z-score” value is -0.699.

GAGTAA: the “6-mer SELEX enrichment z-score” value is -0.361.

CAGTGG: the “6-mer SELEX enrichment z-score” value is 0.466.

As for TCTCTT, the “6-mer SELEX enrichment z-score” value came out at 0.445.

Regarding AGACCC, the “6-mer SELEX enrichment z-score” value is -1.6.

As for GTTGAG, the “6-mer SELEX enrichment z-score” value was -0.522.

AGTGAA: the “6-mer SELEX enrichment z-score” value worked out at 0.026.

As to TGTACA, the “6-mer SELEX enrichment z-score” value is 0.597.

Turning to TCCTCG, the “6-mer SELEX enrichment z-score” value was -0.433.

ATCTCG: the “6-mer SELEX enrichment z-score” value is -0.855.

In the case of ACGGGG, the “6-mer SELEX enrichment z-score” value was determined as 1.3.

On to AGTCAA, for which the “6-mer SELEX enrichment z-score” value worked out at 0.263.

In the case of TGCACG, the “6-mer SELEX enrichment z-score” value stood at 0.954.

Turning to CAACCT, the “6-mer SELEX enrichment z-score” value is -0.899.

As for TGGCGT, the “6-mer SELEX enrichment z-score” value is -0.802.

Take CTTTAT: the “6-mer SELEX enrichment z-score” value amounted to 1.13.

As for CGAACA, the “6-mer SELEX enrichment z-score” value was -0.899.

Regarding CGTGAT, the “6-mer SELEX enrichment z-score” value is 0.052.

Regarding ACGATC, the “6-mer SELEX enrichment z-score” value is -0.625.

On to CGGTGA, for which the “6-mer SELEX enrichment z-score” value turned out to be 0.013.

Take TCGGGA: the “6-mer SELEX enrichment z-score” value is -0.432.

The subject of another assay is IMP3 RRM1-2. The description is as above. The conditions noted are these: construct: RRM1-2 (1-163); SELEX round: R2. Here is the method:
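SELEX-seq with GST-tagged IMP3 RRM1-2 (Met1-Asn163) and an N40 RNA pool, round 2. 6-mer enrichment z-score normalised to GST SELEX. RNA written as DNA (T = U).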
As to CTTACA, the “6-mer SELEX enrichment z-score” value worked out at 0.636.

For the sequence TAACTG, the “6-mer SELEX enrichment z-score” value is -0.557.

On to GTGACC, for which the “6-mer SELEX enrichment z-score” value was -0.535.

With TCCTCG, the “6-mer SELEX enrichment z-score” value is 0.081.

For the sequence TGCACG, the “6-mer SELEX enrichment z-score” value is -0.038.

As for CAACCT, the “6-mer SELEX enrichment z-score” value was -0.017.

On to CGTGAT, for which the “6-mer SELEX enrichment z-score” value is -0.201.

A further assay has as its target IMP3 full-length (UniProt O00425). Described as above. The conditions noted are these: construct: FL IMP3 (1-579); SELEX round: R4. Here is the method: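 SELEX-seq with GST-tagged full-length IMP3 and an N40 RNA pool, round 4. Each 6-mer is scored as an enrichment z-score of sequence tags containing it, normalised to the matching GST SELEX round. RNA written as DNA (T = U).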
UniProt O00425, sequence (O00425 whole entry): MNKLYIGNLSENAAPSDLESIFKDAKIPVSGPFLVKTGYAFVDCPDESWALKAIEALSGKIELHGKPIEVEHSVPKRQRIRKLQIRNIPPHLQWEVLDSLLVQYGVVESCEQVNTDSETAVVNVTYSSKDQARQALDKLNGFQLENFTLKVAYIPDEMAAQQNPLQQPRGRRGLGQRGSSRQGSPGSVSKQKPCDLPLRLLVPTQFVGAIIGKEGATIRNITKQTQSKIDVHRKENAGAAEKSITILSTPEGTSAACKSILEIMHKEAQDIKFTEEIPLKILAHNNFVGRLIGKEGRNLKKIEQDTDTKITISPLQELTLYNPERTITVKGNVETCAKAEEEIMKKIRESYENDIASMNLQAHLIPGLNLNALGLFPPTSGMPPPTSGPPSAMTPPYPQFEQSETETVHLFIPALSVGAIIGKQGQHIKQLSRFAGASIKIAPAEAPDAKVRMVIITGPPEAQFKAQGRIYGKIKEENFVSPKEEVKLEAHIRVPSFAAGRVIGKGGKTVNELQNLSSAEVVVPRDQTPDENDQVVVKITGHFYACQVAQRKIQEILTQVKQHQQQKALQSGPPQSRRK
Consider CAGTCG, for which the “6-mer SELEX enrichment z-score” value was determined as 1.36.

Turning to GTTCGG, the “6-mer SELEX enrichment z-score” value was 0.683.

With GCTAGT, the “6-mer SELEX enrichment z-score” value was -0.29.

Regarding GTCCAA, the “6-mer SELEX enrichment z-score” value was -0.491.

In the case of GACCCT, the “6-mer SELEX enrichment z-score” value is -0.951.

Consider GTACGA, for which the “6-mer SELEX enrichment z-score” value is -0.573.

On to GCAGTT, for which the “6-mer SELEX enrichment z-score” value is 0.172.

On to GCAACC, for which the “6-mer SELEX enrichment z-score” value was determined as 0.465.

With ACAAAG, the “6-mer SELEX enrichment z-score” value is -0.239.

For the sequence GGTTGA, the “6-mer SELEX enrichment z-score” value is -0.099.

For CTGCAA, the “6-mer SELEX enrichment z-score” value worked out at 0.07.

As for TGCATA, the “6-mer SELEX enrichment z-score” value was 0.616.

As for TCCACC, the “6-mer SELEX enrichment z-score” value is -0.583.

For TGCGCG, the “6-mer SELEX enrichment z-score” value came out at 0.133.

With GCAGCC, the “6-mer SELEX enrichment z-score” value was 1.

Consider CAACAC, for which the “6-mer SELEX enrichment z-score” value amounted to 2.18.

Take ACTACC: the “6-mer SELEX enrichment z-score” value is -1.05.

Regarding GAGTAA, the “6-mer SELEX enrichment z-score” value is -0.465.

On to CAGTGG, for which the “6-mer SELEX enrichment z-score” value was 0.685.

On to TCTCTT, for which the “6-mer SELEX enrichment z-score” value worked out at 0.27.

Take AGACCC: the “6-mer SELEX enrichment z-score” value was -1.73.

As to GTTGAG, the “6-mer SELEX enrichment z-score” value was -0.271.

For the sequence AGTGAA, the “6-mer SELEX enrichment z-score” value is -0.681.

Take TGTACA: the “6-mer SELEX enrichment z-score” value came to 0.257.

Consider ATCTCG, for which the “6-mer SELEX enrichment z-score” value is -0.013.

For ACGGGG, the “6-mer SELEX enrichment z-score” value worked out at 0.752.

Regarding AGTCAA, the “6-mer SELEX enrichment z-score” value stood at 0.275.

Regarding TGGCGT, the “6-mer SELEX enrichment z-score” value is -0.051.

On to CTTTAT, for which the “6-mer SELEX enrichment z-score” value came out at 0.283.

Take CGAACA: the “6-mer SELEX enrichment z-score” value came out at 0.52.

For ACGATC, the “6-mer SELEX enrichment z-score” value was -0.27.

Regarding CGGTGA, the “6-mer SELEX enrichment z-score” value came to 0.221.

Take TCGGGA: the “6-mer SELEX enrichment z-score” value was found to be 0.061.

The test system of a further assay is IMP3 KH1-2. The assay is described as above. The conditions noted are these: construct: KH1-2 (164-376); SELEX round: R4. The procedure: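 SELEX-seq with GST-tagged IMP3 KH1-2 (Pro164-Phe376) and an N40 RNA pool, round 4 (stringent 300/600 mM KCl washes). 6-mer z-score of sequence-tag enrichment normalised to the corresponding GST SELEX round; RNA k-mers written as DNA (T for U).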
IMP3 KH1-2, sequence (chain, as listed by the source): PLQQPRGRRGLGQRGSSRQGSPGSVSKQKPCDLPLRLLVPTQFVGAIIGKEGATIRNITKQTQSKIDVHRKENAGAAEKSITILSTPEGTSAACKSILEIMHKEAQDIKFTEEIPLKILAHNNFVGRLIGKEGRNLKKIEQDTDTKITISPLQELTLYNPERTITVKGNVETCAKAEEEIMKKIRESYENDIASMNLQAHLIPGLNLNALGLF
With CAGTCG, the “6-mer SELEX enrichment z-score” value came out at 0.97.

On to GTTCGG, for which the “6-mer SELEX enrichment z-score” value was 0.247.

Consider GCTAGT, for which the “6-mer SELEX enrichment z-score” value was -0.474.

Regarding GTCCAA, the “6-mer SELEX enrichment z-score” value was -0.66.

With GACCCT, the “6-mer SELEX enrichment z-score” value is -1.02.

For GCAGTT, the “6-mer SELEX enrichment z-score” value was -0.07.

Regarding GCAACC, the “6-mer SELEX enrichment z-score” value is -0.358.

For ACAAAG, the “6-mer SELEX enrichment z-score” value was -0.292.

For GGTTGA, the “6-mer SELEX enrichment z-score” value was -0.099.

Take CTGCAA: the “6-mer SELEX enrichment z-score” value was found to be 0.292.

Regarding TGCATA, the “6-mer SELEX enrichment z-score” value was determined as 0.537.

Regarding TCCACC, the “6-mer SELEX enrichment z-score” value is -0.339.

In the case of TGCGCG, the “6-mer SELEX enrichment z-score” value was found to be 0.024.

Regarding GCAGCC, the “6-mer SELEX enrichment z-score” value is 0.329.

For CAACAC, the “6-mer SELEX enrichment z-score” value is 1.1.

For the sequence ACTACC, the “6-mer SELEX enrichment z-score” value is -0.609.

GAGTAA: the “6-mer SELEX enrichment z-score” value is -0.349.

On to CAGTGG, for which the “6-mer SELEX enrichment z-score” value amounted to 0.396.

Turning to TCTCTT, the “6-mer SELEX enrichment z-score” value came out at 0.531.

Consider AGACCC, for which the “6-mer SELEX enrichment z-score” value is -1.38.

GTTGAG: the “6-mer SELEX enrichment z-score” value is -0.473.

Turning to AGTGAA, the “6-mer SELEX enrichment z-score” value is -0.206.

TGTACA: the “6-mer SELEX enrichment z-score” value is 0.327.

For the sequence ATCTCG, the “6-mer SELEX enrichment z-score” value is -0.712.

Turning to ACGGGG, the “6-mer SELEX enrichment z-score” value amounted to 1.65.

For AGTCAA, the “6-mer SELEX enrichment z-score” value is -0.101.

As to TGGCGT, the “6-mer SELEX enrichment z-score” value is -0.646.

For the sequence CTTTAT, the “6-mer SELEX enrichment z-score” value is 0.994.

Take CGAACA: the “6-mer SELEX enrichment z-score” value was -0.715.

For ACGATC, the “6-mer SELEX enrichment z-score” value is -0.67.

Consider CGGTGA, for which the “6-mer SELEX enrichment z-score” value was -0.012.

Regarding TCGGGA, the “6-mer SELEX enrichment z-score” value was -0.306.
